According to PubChem BioAssay (NCATS):
Some of the results follow. These are further read-outs of the screen, such as a control signal, another cell line or another target. No call is given for them. Words in brackets tell the shape of the fitted curve; partial curves, single points and poor fits give uncertain potencies.

Test: qHTS drug screen for cell cycle checkpoint inhibitors in PARPi-resistant BRCA-mutant ovarian cancer cell lines. (AID 1963452)
Settings: PEO1/OlaR viability, CellTiter-Glo luminescence, 96 h
In short: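 PEO1, PEO4 and PEO1/OlaR ovarian cancer cells, 600 per well, exposed 96 h at 37C to a dilution series. Viability read by CellTiter-Glo luminescence, normalized to DMSO and empty wells; activity summarized as Z-AUC.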

[1] = measured here: PEO1 parental viability
Tags describe the fitted curve by direction and shape.

Structure (SMILES) | AC50 [1] | AC50 (measured here: PEO4 viability)
CC(=O)NCC(=O)N1[C@@H]2CC[C@H]1c1ccc(Nc3ncc(C(F)(F)F)c(NC4CCC4)n3)cc12 | 8.71 µM [falling, partial curve] | 7.76 µM [falling, partial curve]
C[C@@H](C(=O)Nc1ccc(Cl)cc1)C1CCC(c2ccnc3ccc(F)cc23)CC1 (some centres undefined) | 12.3 µM [falling, partial curve] | 13.8 µM [falling, partial curve, poor fit]
Nc1cccc(S(=O)(=O)N2CCCN(S(=O)(=O)c3ccc4c(c3)OCCO4)CC2)c1 | 27.5 µM [falling, partial curve, poor fit] | 8.71 µM [falling, partial curve, poor fit]
Nc1ncccc1-c1nc2ccc(-c3ccccc3)nc2n1-c1ccc(C2(N)CCC2)cc1 | 19.5 µM [falling, partial curve] | 19.5 µM [falling, partial curve]
Fc1cccc(-n2cnc3c(NCc4nc5c(F)c(F)ccc5[nH]4)nc(N4CCOCC4)nc32)c1 | 0.123 µM [falling, full curve] | 0.219 µM [falling, full curve]
COc1cc(C(=O)NC(N)=Nc2ccc(C)c(NC(=O)c3ccc(-c4ccccc4)cc3)c2)cc(OC)c1OC | 17.4 µM [falling, partial curve] | 11 µM [falling, partial curve]
CN1CCN(C2CCN(C(=O)Nc3cc(Oc4ccc(NC(=O)C5(C(=O)Nc6ccc(F)cc6)CC5)c(F)c4)ccn3)CC2)CC1 | 19.5 µM [falling, single point] | 15.5 µM [falling, single point]
C[C@H](CN(C)C)Oc1nc(Nc2cc3cccc(Cl)c3cn2)cnc1C#N | 3.89 µM [falling, partial curve] | 1.23 µM [falling, full curve]
C=CC(=O)Nc1cccc(Oc2nc(Nc3ccc(N4CCN(C)CC4)cc3)nc3ccsc23)c1 | 12.3 µM [falling, partial curve] | 9.77 µM [falling, partial curve]
COc1ccc([C@@H](O)[C@@H](C)Oc2ccc([C@H]3O[C@H](c4ccc(O[C@H](C)[C@H](O)c5ccc(OC)c(OC)c5)c(OC)c4)[C@H](C)[C@H]3C)cc2OC)cc1OC | 0.0039 µM [falling, full curve, poor fit] | 0.0692 µM [falling, full curve, poor fit]
Cc1ccc(S(=O)(=O)Nc2cc(-c3ccc(C#N)s3)ccc2C)cc1 | 0.049 µM [falling, full curve] | 0.0436 µM [falling, full curve]
CC/C(=C(/c1ccc(O)cc1)c1ccc(OCCNC)cc1)c1ccccc1 | 17.4 µM [falling, single point] | 21.9 µM [falling, partial curve]
CC(C)(C)C[C@H]1N[C@@H](C(=O)NC2CCC(O)CC2)[C@H](c2cccc(Cl)c2F)[C@@]12C(=O)Nc1cc(Cl)ccc12 (some centres undefined) | 24.5 µM [falling, single point] | 13.8 µM [falling, single point]
CCOc1cc(C(=O)N2CCC(N3CCN(C)CC3)CC2)ccc1Nc1ncc2c(n1)N(C1CCCC1)c1ccccc1C(=O)N2C | 15.5 µM [falling, partial curve] | 9.77 µM [falling, partial curve]
Cc1ccc(NC(=O)Nc2nnc(Sc3ncnc4cc(OCCCN5CCOCC5)ccc34)s2)cc1 | 24.5 µM [falling, single point] | 24.5 µM [falling, single point]
COc1nc(OCc2cccc(-c3ccccc3)c2C)ccc1CNCCNC(C)=O | 19.5 µM [falling, partial curve] | 19.5 µM [falling, single point]
CC(C)CC(=O)N[C@H](C(=O)N[C@H](C(=O)N[C@@H](CC(C)C)[C@@H](O)CC(=O)N[C@@H](C)C(=O)N[C@@H](CC(C)C)[C@@H](O)CC(=O)O)C(C)C)C(C)C | 6.16 µM [rising, partial curve, poor fit] | 17.4 µM [rising, partial curve]
